B1: PhoQ; a variant is named by its letters at X, in order, P23837 (parent)
chain: MKKLLRLFFPLSLRVRFLLATAAVVLVLSLAYGMVALIGYSVSFDKTTFRLLRGESNLFYTLAKWENNKLHVELPENIDKQSPTMTLIYDENGQLLWAQRDVPWLMKMIQPDWLKSNGFHEIEADVNDTSLLLSGDHSIQQQLQEVREDDDDAEMTHSVAVNVYPATSRMPKLTIVVVDTIPVELKSSYMVWSWFIYVLSANLLLVIPLLWVAAWWSLRPIEALAKEVRELEEHNRELLNPATTRELTSLVRNLNRLLKSERERYDKYRTTLTDLTHSLKTPLXXLQXXLRSLRSEKMSVSDAEPVMLEQISRISQQIGYYLHRASMRGGTLLSRELHPVAPLLDNLTSALNKVYQRKGVNISLDISPEISFVGEQNDFVEVMGNVLDNACKYCLEFVEISARQTDEHLYIVVEDDGPGIPLSKREVIFDRGQRVDTLRPGQGVGLAVAREITEQYEGKIVAGESMLGGARMEVIFGRQHSAPKDE

The list shows a part of the results. A value given as a limit tells only on which side of the number the result lay.

In the experiment the parent is B1. Put plainly: enrichment ratio after two sorts for PhoP signalling (ratio (wild type AVST 3.29)); higher = more functional. The following applies: with PhoP (E. coli).
Take PIWD: the enrichment ratio is at most 0.25.
On to DYWK, for which the enrichment ratio is at most 0.25.
Turning to RVFC, the enrichment ratio was at most 0.25.
As for MELW, the enrichment ratio was at most 0.25.
On to HGRV, for which the enrichment ratio is at most 0.25.
With GNYW, the enrichment ratio is at most 0.25.
The figure for FIQL is at most 0.25; for QTIP it is at most 0.25.
With NKQF, the enrichment ratio was at most 0.25.
As to LDEA, the enrichment ratio is at most 0.25.
The figure for GHRA is at most 0.25; for DNFQ it is at most 0.25; for KDAW it is at most 0.25.
With MRVP, the enrichment ratio was at most 0.25.
As to PMVL, the enrichment ratio is at most 0.25.
For the variant SKPS, the enrichment ratio is at most 0.25.
On to IVLI, for which the enrichment ratio was at most 0.25.
Regarding RPQH, the enrichment ratio was at most 0.25.
As for KTAR, the enrichment ratio was at most 0.25.
The figure for RQID is at most 0.25; for KGYQ it is at most 0.25; for IRWE it is at most 0.25.
The figure for PYVS is at most 0.25.
The figure for YVAC is at most 0.25; for WQKG it is at most 0.25; for RPDM it is at most 0.25.
With VQGF, the enrichment ratio is 0.296.
On to RLVP, for which the enrichment ratio is at most 0.25.
The figure for IMHE is at most 0.25; for VCHY it is at most 0.25; for FGQV it is at most 0.25.
For the variant VLAT, the enrichment ratio was at most 0.25.
Take HSWP: the enrichment ratio is at most 0.25.
In the case of GSPR, the enrichment ratio was at most 0.25.
The figure for ETHM is at most 0.25.
Take WGYK: the enrichment ratio was at most 0.25.
FNAD: the enrichment ratio was at most 0.25.
The figure for DNQT is at most 0.25; for HRHN it is at most 0.25.
For ESMM, the enrichment ratio was at most 0.25.
The figure for SWGF is at most 0.25; for PMCV it is at most 0.25.
The figure for KFAP is at most 0.25.
As for YGMA, the enrichment ratio is at most 0.25.
As for WICP, the enrichment ratio was at most 0.25.
For NQWL, the enrichment ratio is at most 0.25.
The figure for EFEM is at most 0.25; for EFNE it is at most 0.25; for DFDA it is at most 0.25.
The figure for WEAF is at most 0.25; for LSGL it is at most 0.25.
Take DFLC: the enrichment ratio is at most 0.25.
The figure for YGMH is at most 0.25; for NLSI it is at most 0.25.
Regarding YNTC, the enrichment ratio was at most 0.25.
The figure for NLMY is at most 0.25; for CMVC it is at most 0.25; for TEDH it is at most 0.25.
Take QKHT: the enrichment ratio is at most 0.25.
The figure for SHTR is at most 0.25; for TTNP it is at most 0.25.
In the case of EERL, the enrichment ratio was at most 0.25.
For IDTM, the enrichment ratio was at most 0.25.
The figure for IDVS is at most 0.25; for ESNR it is at most 0.25.
The figure for KRAD is at most 0.25.
The figure for HTRV is at most 0.25; for QEHN it is 5.05; for GQMR it is at most 0.25.
Turning to MHWW, the enrichment ratio is at most 0.25.
The figure for VSRE is at most 0.25; for NWYC it is at most 0.25.
The figure for VYDF is at most 0.25; for ENFG it is at most 0.25.
The figure for TPFP is at most 0.25.
Consider QRMP, for which the enrichment ratio was at most 0.25.
The figure for HGLV is 7.08; for PPTW it is at most 0.25; for DNKL it is at most 0.25.
The figure for GMIV is 0.55; for GQRY it is at most 0.25; for FWCY it is at most 0.25.
As to SLFM, the enrichment ratio was at most 0.25.
The figure for QKCF is at most 0.25; for RNSF it is at most 0.25.
As to AGFV, the enrichment ratio came to 5.65.
Regarding DTLG, the enrichment ratio is at most 0.25.
The figure for LYVW is at most 0.25; for YQQV it is at most 0.25.
For IPGG, the enrichment ratio is at most 0.25.
Regarding DEFC, the enrichment ratio was at most 0.25.
As for AAFK, the enrichment ratio was at most 0.25.
Turning to GSGG, the enrichment ratio is at most 0.25.
As to ISNC, the enrichment ratio is at most 0.25.
The figure for NDIW is at most 0.25; for MTPQ it is at most 0.25.
The figure for DCAY is at most 0.25; for STDH it is at most 0.25.
The figure for SFDG is at most 0.25.
KCDC: the enrichment ratio is at most 0.25.
Regarding WRDL, the enrichment ratio is at most 0.25.
The figure for HCTA is at most 0.25; for TTLW it is at most 0.25; for GIPT it is at most 0.25.
The figure for SWMV is at most 0.25.
KSIV: the enrichment ratio was at most 0.25.
The figure for QHKG is at most 0.25.
The figure for LRHT is at most 0.25; for INDQ it is at most 0.25; for PKQW it is at most 0.25.
For the variant PRQK, the enrichment ratio was at most 0.25.
The figure for QCYS is at most 0.25; for RTMS it is at most 0.25; for RGDN it is at most 0.25.
The figure for TKHD is at most 0.25.
Consider VNKA, for which the enrichment ratio is at most 0.25.
The figure for QSLP is 0.302; for AGGY it is 10; for AMQY it is at most 0.25.
With QDVK, the enrichment ratio is at most 0.25.
The figure for RSWG is at most 0.25.
The figure for INCQ is at most 0.25; for RPAL it is at most 0.25.
The figure for PMHL is 0.525.
With HMYL, the enrichment ratio is at most 0.25.
The figure for MAND is at most 0.25; for CLCG it is at most 0.25; for VKYY it is at most 0.25.
Take VDTS: the enrichment ratio is at most 0.25.
Regarding DWCN, the enrichment ratio was at most 0.25.
Turning to PGYY, the enrichment ratio was at most 0.25.
VYLL: the enrichment ratio is at most 0.25.
The figure for HWFR is at most 0.25.
For EDVN, the enrichment ratio was at most 0.25.
As for LMQY, the enrichment ratio was at most 0.25.
The figure for SCPY is at most 0.25; for GDKI it is at most 0.25.
For the variant ACLW, the enrichment ratio came to 4.69.
Turning to WVAG, the enrichment ratio is at most 0.25.
On to WWVQ, for which the enrichment ratio was at most 0.25.
The figure for VDVH is 4.55; for QDLY it is at most 0.25; for CNYG it is at most 0.25.
Take DHGF: the enrichment ratio was at most 0.25.
The figure for DPGL is at most 0.25; for RYHC it is at most 0.25; for VHSP it is at most 0.25.
The figure for YFHV is at most 0.25; for TLGL it is 6.6.
The figure for QTPF is at most 0.25; for PPLT it is at most 0.25; for HTNF it is at most 0.25.
With YQNI, the enrichment ratio is at most 0.25.

(Values after a collection of fitness landscapes (doi:10.1126/science.1257360).)
